Data as given in the supplement of paper PMC4604168 (melanoma cell lines).
The list shows a part of the results. Many values rest on one well or one pass, so single values are uncertain.

Tested on: IPC-298
Test: cell count relative to DMSO control; melanoma cells; higher = more viable cells
Details: library dose: standard library concentration; 72 h
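Further: cells treated in 1,536-well plates, then fixed and DAPI-stained, with nuclei counted from automated high-throughput microscope images.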

For `O=c1[nH]nc(Sc2ncc([N+](=O)[O-])s2)n1-c1ccc2c(c1)OCCO2` + CC(C)C[C@H](NC(=O)[C@H](Cc1ccccc1)NC(=O)c1cnccn1)B(O)O [Bortezomib] (first compound 1 µM, partner dose 0.005 µM), which cell count is on record?
Its cell count is 10.1%.

With `O=c1[nH]nc(Sc2ncc([N+](=O)[O-])s2)n1-c1ccc2c(c1)OCCO2` + CCc1ccc(CCOc2ccc(CC3SC(=O)NC3=O)cc2)nc1 [pioglitazone] (first compound 1 µM, partner dose 10 µM) as the molecule, how does the cell count read?
The cell count was 96.1%.

For `C[C@@H]1CCN(C(=O)CC#N)C[C@@H]1N(C)c1ncnc2[nH]ccc12` + COc1ccc(-c2ccc3c(N4CCOCC4)nc(N4C[C@@H](C)O[C@@H](C)C4)nc3n2)cc1CO [KU0063794] (first compound 5 µM, partner dose 0.1 µM), which cell count is on record?
Its cell count is 77.1%.

Which cell count does the source give for `C[C@@H]1CCN(C(=O)CC#N)C[C@@H]1N(C)c1ncnc2[nH]ccc12` + O=S(=O)(c1ccccc1)N(CC(F)(F)F)c1ccc(C(O)(C(F)(F)F)C(F)(F)F)cc1 [T0901317] (first compound 5 µM, partner dose 7 µM) here?
Its cell count is 83.2%.

Tested on: IST-MEL1
Test: as above
Details: library dose: standard library concentration; 72 h

For `O=c1[nH]nc(Sc2ncc([N+](=O)[O-])s2)n1-c1ccc2c(c1)OCCO2` + Cn1nnc2c(C(N)=O)ncn2c1=O [temozolomide] (first compound 1 µM, partner dose 10 µM), which cell count is on record?
Its cell count is 76.8%.

With `Cn1cncc1[C@@](N)(c1ccc(Cl)cc1)c1ccc2c(c1)c(-c1cccc(Cl)c1)cc(=O)n2C` [tipifarnib] + O=C(O)C(=O)Nc1sc2c(c1C(=O)O)CCNC2 [TCS401] (first compound 0.05 µM, partner dose 8.33333 µM) as the molecule, how does the cell count read?
The cell count was 97%.

With `O=C(Nc1cccc(Cl)c1)Nc1ncc(CCNc2ncnc3ccsc23)s1` + CCc1ccc(CCOc2ccc(CC3SC(=O)NC3=O)cc2)nc1 [pioglitazone] (first compound 0.004 µM, partner dose 10 µM) as the molecule, how does the cell count read?
Its cell count is 59.7%.

For `O=c1[nH]nc(Sc2ncc([N+](=O)[O-])s2)n1-c1ccc2c(c1)OCCO2` + O=C(O)c1ccc(-c2c[nH]c3ncc(-c4ccccc4)cc23)cc1C1CCCC1 [GSK650394] (first compound 1 µM, partner dose 0.8 µM), which cell count is on record?
The cell count was 68.1%.

How did the cell count turn out when `O=c1[nH]nc(Sc2ncc([N+](=O)[O-])s2)n1-c1ccc2c(c1)OCCO2` + O=C(Nc1cccc(Cl)c1)Nc1ncc(CCNc2ncnc3ccsc23)s1 [SNS314] (first compound 1 µM, partner dose 0.004 µM) was run?
Its cell count is 63.2%.

With `COc1cc(Nc2ncc(F)c(Nc3ccc4c(n3)NC(=O)C(C)(C)O4)n2)cc(OC)c1OC` [Tamatinib] + CCCCCCCCCCCC1=C(O)C(=O)C=C(O)C1=O [Embelin] (first compound 2 µM, partner dose 6 µM) as the molecule, how does the cell count read?
The cell count was 68.2%.

How did the cell count turn out when `CC1(C)NC(=O)N(c2ccc([N+](=O)[O-])c(C(F)(F)F)c2)C1=O` [nilutamide] + O=C1NC(=O)/C(=C/c2ccc(-c3ccc(F)cc3O)o2)S1 [AS252424] (first compound 5 µM, partner dose 5 µM) was run?
Its cell count is 97.2%.

Which cell count does the source give for `Cn1cncc1[C@@](N)(c1ccc(Cl)cc1)c1ccc2c(c1)c(-c1cccc(Cl)c1)cc(=O)n2C` [tipifarnib] + O=C(Nc1ccccc1)c1cc([N+](=O)[O-])ccc1Cl [GW9662] (first compound 0.05 µM, partner dose 10 µM) here?
Its cell count is 91%.

Which cell count does the source give for `O=c1[nH]nc(Sc2ncc([N+](=O)[O-])s2)n1-c1ccc2c(c1)OCCO2` + C[C@@H](N)c1ccc(C(=O)Nc2ccnc3[nH]ccc23)cc1 [RKI983] (first compound 1 µM, partner dose 2 µM) here?
The cell count was 78.7%.

`O=C(O)c1ccc(-c2c[nH]c3ncc(-c4ccccc4)cc23)cc1C1CCCC1` + COc1cc(N2CCC(N3CCN(C)CC3)CC2)ccc1Nc1ncc(Cl)c(Nc2ccccc2S(=O)(=O)C(C)C)n1 [NVP-TAE684] (first compound 0.8 µM, partner dose 0.4 µM) was tested. Which cell count did it give?
The cell count was 77.8%.

How did the cell count turn out when `O=c1[nH]nc(Sc2ncc([N+](=O)[O-])s2)n1-c1ccc2c(c1)OCCO2` + COc1cc(Nc2ncc(F)c(Nc3ccc4c(n3)NC(=O)C(C)(C)O4)n2)cc(OC)c1OC [Tamatinib] (first compound 1 µM, partner dose 2 µM) was run?
The cell count was 70.6%.
